Assay results reported in PubChem BioAssay AID1671188 (National Center for Advancing Translational Sciences (NCATS), 2021).
Several values for one entry are separate records, joined by “and”; a condition that tells them apart may be missing. Equal entries are not always repeated. Among all 100,000 compounds or so, about 250 (0.25%) were called active. The inconclusive results got no clear call from the source; some entries with a clear call stand among them for comparison. The call rests on the fitted dose curve; in most records, active means well fitted inhibition curve with a large enough effect; inconclusive means small, poorly fitted or top-dose-only effect; inactive means flat fitted curve, though single readings scatter. Where the call is inconclusive, the potency comes from a doubtful curve fit.

What follows are compounds tested against Alanine aminotransferase 2 (Homo sapiens) (UniProt Q8TD30) (assay: Primary qHTS assay for inhibitors of Glutamate pyruvate transaminase 2 (GPT2)). Settings: Recombinant GPT2, coupled pyruvate oxidase/HRP Amplex Red fluorescence; series mostly up to 57.7 µM.
How it was run: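 Inhibition is scored from Amplex Red fluorescence generated when pyruvate oxidase and HRP act on pyruvate released by GPT2. Reactions contain 10ng/uL enzyme, 250uM a-KG and 2mM L-alanine and run 30 min at room temperature.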
Further: nearly all actives have a fitted effect of over 60% in size.
Potency means the concentration at half of the fitted maximal effect; tags describe the fitted curve by direction and shape.

Sequence of UniProt Q8TD30 (Q8TD30 whole entry, looked up): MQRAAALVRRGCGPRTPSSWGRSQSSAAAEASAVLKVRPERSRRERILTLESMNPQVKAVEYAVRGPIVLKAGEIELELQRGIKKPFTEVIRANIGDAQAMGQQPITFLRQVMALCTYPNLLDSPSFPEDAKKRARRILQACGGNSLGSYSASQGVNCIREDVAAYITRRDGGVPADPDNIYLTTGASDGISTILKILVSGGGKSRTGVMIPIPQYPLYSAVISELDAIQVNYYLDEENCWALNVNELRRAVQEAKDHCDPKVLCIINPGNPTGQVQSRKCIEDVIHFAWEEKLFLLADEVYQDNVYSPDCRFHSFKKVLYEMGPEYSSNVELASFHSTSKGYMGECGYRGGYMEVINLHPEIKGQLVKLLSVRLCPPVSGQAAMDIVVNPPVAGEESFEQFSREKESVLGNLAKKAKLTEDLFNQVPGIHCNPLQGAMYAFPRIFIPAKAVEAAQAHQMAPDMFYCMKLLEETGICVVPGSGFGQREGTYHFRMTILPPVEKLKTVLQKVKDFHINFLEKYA

Structure (SMILES) | Potency
CN(C)C(=O)c1cc(-c2ccccc2F)cc2c1OCCN2Cc1cccnc1 | inconclusive: 12.6 µM [inhibitor, single point]
Cc1csc(NC(=O)c2nc(C(O)c3cccc(O)c3)oc2C)n1 (configuration not stated) | inconclusive: 56.2 µM [inhibitor, single point]
Cn1cnc(S(=O)(=O)N2CCCC(Cc3noc(-c4ccccc4)n3)C2)c1 (configuration not stated) | inconclusive: 8.91 µM [inhibitor, single point]
O=C(Nc1ccncn1)[C@@H]1C[C@@H](c2cccc(C(F)(F)F)c2)N(CC2CCOCC2)C1 | inactive
CC1Oc2ccc(NC(=O)Cc3ccccc3)cc2CN(Cc2ccc(F)cc2)C1=O (configuration not stated) | inconclusive: 35.5 µM [inhibitor, single point]
Cc1csc(Nc2ccc3c(n2)CN(CCOc2ccccc2)C(=O)CO3)n1 | inconclusive: 35.5 µM [inhibitor, partial curve, poor fit]
CCN(CC)CC(C)NC (configuration not stated) | inactive
CC(=O)c1cc(C(=O)NCc2cccnc2N(C)Cc2ccccc2)cs1 | inconclusive: 8.91 µM [inhibitor, single point]
Cc1nc2c(c(-c3ccc(O)cc3)n1)CN(Cc1ccc(C(F)(F)F)cc1)CC2 | inactive
NCCCC(=O)N1CCC2(CC1)CN(C(=O)c1ccc(Cl)cc1)CCO2 | inactive
COc1ccc(C(=O)Nc2cc(-c3ccncc3)nn2-c2ccccc2)cc1 | inactive
Cc1cc2c(F)c(Oc3ncnn4cc(OCC(C)O)c(C)c34)ccc2[nH]1 (configuration not stated) | inconclusive: 39.8 µM [inhibitor, single point]
CN(C)Cc1c(C(=O)NCCOc2ccc(C(=O)NO)cc2)oc2ccccc12 | active: 30.6 µM and inconclusive: 39.8 µM [inhibitor, single point]
Cc1noc2c(-c3cccnc3NCC3CCOCC3)cc(-c3ccccc3)nc12 | inactive
Fc1ccc2c(c1)nc1n2[C@@H](CNCc2ccccc2)COC1 | inactive
O=C1NCCCCCN(C(=O)CC2CCCC2)[C@@H]2C[C@@H](C(=O)N3CCc4ccccc4C3)C[C@H]12 | inactive
Fc1ccc(Nc2cc3c(cn2)CN(Cc2ccccc2)CCN3)cc1 | inconclusive: 63.1 µM [inhibitor, single point]
NCCCNc1ccc(Nc2nccc(Nc3cc(C4CC4)[nH]n3)n2)cc1 | inconclusive: 39.8 µM [inhibitor, single point]
O=C(NCCCc1ccccc1)c1ccc2nc(-c3cccnc3)oc2c1 | inactive
O=C1CN(Cc2cc3n(n2)CCCNC3)CCN1Cc1ccc2c(c1)OCO2 | inconclusive: 2 µM [inhibitor, full curve, poor fit]
Cc1ccc(C(=O)NC2CCN(c3cc(-c4ccc(F)cc4)[nH]n3)C2)cc1C (configuration not stated) | inconclusive: 12.6 µM [inhibitor, partial curve]

Structure (SMILES) | Potency
O=C1NN=C(c2cccnc2)C12CCN([S+](=O)([O-])c1cccc(C(F)(F)F)c1)CC2 | inconclusive: 4.47 µM [inhibitor, single point]
CC(N)=O | inconclusive: 4.47 µM [inhibitor, full curve, poor fit]
Cc1nnc(-c2cc(N3C[C@@H](C)O[C@@H](C)C3)ccn2)n1C1CCCCC1 | inconclusive: 3.16 µM [inhibitor, partial curve, poor fit]
Cc1ccc(NC(=O)Nc2cc(C(F)(F)F)ccc2F)cc1Nc1ccc2c(c1)NC(=O)C2=Cc1ccc[nH]1 | inconclusive: 24.3 µM [inhibitor, partial curve]
CC(C)n1nc(C#Cc2ccccc2)c2c(N)ncnc21 | inconclusive: 3.98 µM [inhibitor, full curve, poor fit]
CC(C)CN1C(=O)COC[C@@H]1[C@H](O)c1ccc(NC(=O)C2CCC2)cc1 | inconclusive: 56.2 µM [inhibitor, single point]
O=C([C@@H]1C[C@H](Oc2ccccc2)CN1C(=O)c1cccnc1)N1CCCC1 | inconclusive: 39.8 µM [inhibitor, single point]
COc1ccc(CN2CCNc3cnc(Nc4ccccc4)cc3C2)cc1O | inconclusive: 3.55 µM [inhibitor, full curve, poor fit]
O=C(c1ccccc1)N1CCc2nc(-c3ccccc3)nc(-c3ccc(Cl)cc3)c2C1 | inactive
CCn1cc(CN2CCn3nnc(CCC(=O)N4CCCC4)c3C2)c2ccccc21 | inconclusive: 35.5 µM [inhibitor, single point]
Cc1ccc(-c2nc(C(=O)NCc3cc(F)cc(F)c3)no2)cc1 | inactive
COc1ccc(C(=O)NC2CCN(c3cc(-c4cccs4)[nH]n3)C2)cc1F (configuration not stated) | inconclusive: 12.6 µM [inhibitor, partial curve]
C[C@@H]1C(=O)O[C@H]2[C@H]1CC[C@@]1(C)Cc3sc(Nc4ccc(O)cc4)nc3[C@@H](C)[C@H]21 | inconclusive: 25.1 µM [inhibitor, partial curve, poor fit]
COc1ccc(Nc2ccnc(N3CCCC(C(=O)N4CCOCC4)C3)n2)cc1 (configuration not stated) | inactive
COCC1CN(Cc2cnn(C(C)C)c2)CC12CCNCC2 (configuration not stated) | inconclusive: 25.1 µM [inhibitor, partial curve, poor fit]
Cc1cncc(-c2ccc(S(N)(=O)=O)cc2F)c1 | inconclusive: 14.1 µM [inhibitor, partial curve, poor fit]
CCOc1ccccc1CNC(=O)c1c(C)noc1-c1cccs1 | inconclusive: 20 µM [inhibitor, single point]
Cc1cc(C(=O)N2CCn3nc(C(O)CO)cc3C2)c2c(C)noc2n1 (configuration not stated) | inconclusive: 3.98 µM [inhibitor, full curve, poor fit]
O=C(Cc1c[nH]c2ccccc12)NC1CCCc2c1[nH]c1ccc(F)cc21 (configuration not stated) | inactive
COc1ccc(-c2cc(N3CCCC(NC(=O)c4ccsc4)C3)n[nH]2)cc1 (configuration not stated) | inconclusive: 20 µM [inhibitor, single point]
CCc1nc(-c2ccc(OC3CCN(C(=O)COc4ccc(F)cc4)C3)cc2)no1 (configuration not stated) | inconclusive: 6.31 µM [inhibitor, single point]
